# PMC4336329 (PLoS ONE, 2015)
# In all, about 310,000 compounds went through this assay and about 14,000 (4.5%) showed an effect of 50% or more. Effects have a minus sign here. Some of the results follow.
# Molecular target: human ether-à-go-go-related gene (hERG) potassium channel (human, UniProt Q12809)
# Assay: primary screen, population patch clamp on CHO cells stably expressing hERG
# 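Also: peak tail current of the secondary pulse compared with the same well before compound.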
# Chain of human ether-à-go-go-related gene (hERG) potassium channel (Q12809 whole entry, looked up): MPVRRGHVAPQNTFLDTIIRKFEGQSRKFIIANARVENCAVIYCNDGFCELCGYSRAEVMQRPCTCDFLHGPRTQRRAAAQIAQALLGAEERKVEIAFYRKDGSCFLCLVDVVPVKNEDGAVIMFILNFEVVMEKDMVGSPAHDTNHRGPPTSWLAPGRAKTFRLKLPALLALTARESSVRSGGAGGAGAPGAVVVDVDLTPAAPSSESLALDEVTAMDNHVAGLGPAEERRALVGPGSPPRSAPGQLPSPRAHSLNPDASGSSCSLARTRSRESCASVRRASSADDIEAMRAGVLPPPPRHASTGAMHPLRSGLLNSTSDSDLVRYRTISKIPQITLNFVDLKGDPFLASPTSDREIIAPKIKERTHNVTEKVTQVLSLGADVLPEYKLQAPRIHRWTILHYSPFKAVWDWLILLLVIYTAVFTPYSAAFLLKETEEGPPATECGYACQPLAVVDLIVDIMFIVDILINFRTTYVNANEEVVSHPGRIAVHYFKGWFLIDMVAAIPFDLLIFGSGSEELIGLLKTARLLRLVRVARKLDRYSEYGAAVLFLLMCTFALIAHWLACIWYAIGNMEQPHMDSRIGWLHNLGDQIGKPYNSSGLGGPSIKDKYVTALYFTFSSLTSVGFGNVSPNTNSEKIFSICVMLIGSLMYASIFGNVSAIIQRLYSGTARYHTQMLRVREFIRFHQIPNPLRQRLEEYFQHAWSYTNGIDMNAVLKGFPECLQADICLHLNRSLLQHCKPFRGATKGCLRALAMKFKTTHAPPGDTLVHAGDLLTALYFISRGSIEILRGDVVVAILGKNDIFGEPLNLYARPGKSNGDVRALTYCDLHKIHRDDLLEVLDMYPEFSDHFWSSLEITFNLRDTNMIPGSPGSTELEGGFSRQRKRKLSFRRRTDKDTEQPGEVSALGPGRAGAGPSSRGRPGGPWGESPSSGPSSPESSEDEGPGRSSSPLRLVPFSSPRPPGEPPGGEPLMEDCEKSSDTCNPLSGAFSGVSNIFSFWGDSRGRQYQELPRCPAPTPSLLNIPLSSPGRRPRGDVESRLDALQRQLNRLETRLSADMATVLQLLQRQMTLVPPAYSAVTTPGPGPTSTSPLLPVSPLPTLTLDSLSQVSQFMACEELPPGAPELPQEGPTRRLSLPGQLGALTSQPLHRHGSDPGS
row,Compound,"hERG current change (%, negative = inhibition) at 10uM"
1,CCNc1nc(NC(C)(C)C)nc(N(C#N)CC)n1,-30.9%
2,CCCc1cc(=O)[nH]c(SCC(=O)c2c(N)n(C)c(=O)n(C)c2=O)n1,-2.36%
3,O=C(N/N=C/c1cccs1)c1ccc2ccccc2c1,5.37%
4,CCNCCNc1ccc(Cl)cc1[N+](=O)[O-].Cl,-20.3%
5,NS(=O)(=O)c1ccc(NC(=O)CN2CCc3ccccc32)cc1,6.29%
6,Cl.c1ccc(Nc2nc(NCC3CCCO3)c3ccccc3n2)cc1 (stereo not shown),-31.2%
7,CCC(CC)C(=O)c1c[nH]c(C(=O)NCc2cccs2)c1,18.6%
8,O=C(C1=C(O)C(=O)N(CCN2CCOCC2)C1c1ccncc1)c1ccco1 (stereo not shown),0.392%
9,C[C@H](NS(=O)(=O)c1ccc(Cl)cc1)C(=O)OCC(=O)c1ccc[nH]1,-26.6%
10,N#CCC(=O)Nc1ccc(C(=O)OCc2ccccc2Oc2ccccc2)cc1,17.8%
11,O=C(Cc1ccccc1F)NCC(=O)Nc1ccccc1Br,20.3%
12,O=C(CC(Nc1ccc(Cl)cc1)C(=O)O)c1ccccc1 (stereo not shown),4.2%
13,Cc1ccc(C(C(=O)NC2CCCC2)N(C(=O)c2csnn2)c2ccccc2)o1 (stereo not shown),-2.7%
14,COc1ccc(N=C2SC(CC(=O)Nc3ccccc3)C(=O)N2Cc2ccco2)cc1 (stereo not shown),17%
15,O=C(CSc1nccn1-c1cccc(Cl)c1)Nc1ccc2c(c1)OCCO2,-44.6%
16,CN=C1c2cc3c(Br)c(OC)ccc3n2CCN1C.Cl,-66.9%
17,COc1ccc(OC)c2c1sc(=NC(=O)C(C)C)n2C,13.2%
18,CCOc1ccc(N=C2NC(=O)S/C2=C\c2ccc(OC)cc2)cc1,2.17%
19,O=C(CCC1CCCCC1)NCCS(=O)(=O)N1CCN(c2ccccc2F)CC1,14.1%
20,CC(C)C[C@H](NC(=O)OC(C)(C)C)c1nnc(SCC(=O)Nc2ccc(Br)cc2)o1,-16%
21,CSc1ccc(S(=O)(=O)NCC(=O)OC2CCOC2=O)cc1[N+](=O)[O-] (stereo not shown),-6.04%
22,O=C(CNc1ccc(Cl)cc1)c1ccc(Br)cc1,13.6%
23,COc1cc(C(=O)NCCSc2ccccc2)cc(OC)c1OC,8.28%
24,CCN1CCN(CC(=O)Nc2sc3c(c2C#N)CCC3)CC1,-18.1%
25,Cc1ccc(-c2cc(C(F)F)n3ncc(C(=O)N4CCCCC4c4cccnc4)c3n2)cc1 (stereo not shown),-36.4%
